From a collection of fitness landscapes (doi:10.1016/j.celrep.2020.107928)
Whole data set: some 81,000 sequences, median “one-hybrid fitness for binding NBS DNA” near -0.1, cut for the highest 2% near 0.36. The list shows a part of the results.

B1: Caulobacter ParB omega fusion; a variant is named by its letters at X, in order, B8GW30 (parent)
chain: MESVVVGEPGMSEGRRGLGRGLSALLGEVDAAPAQAPGEQLGGSREAPIEILQRNPDQPRRTFREEDLEDLSNSIREKGVLQPILVRPSPDTAGEYQIVAGERAWRAAQRAGLKTVPIMVRELDDLAVLEIGIIENVQRADLNVLEEALSYKVLMEKFERTQENIAQTIGKSXSHVANXMRLLXLPDEVQSYLVSGELTAXHARAIAAAADPVALAKQIIEGGLSVRETEALARKAPNLSAGKSKGGRPPRVKDTDTQALESDLSSVLGLDVSIDHRGSTGTLTITYATLEQLDDLCNRLTRGI

Variants of: B1
Test: one-hybrid fitness for binding NBS DNA (the Noc-binding site; scaled: cognate 1, non-cognate 0); higher = stronger binding
Conditions: with NBS DNA site
Summary of the method: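 In E. coli USO, a HIS3 reporter with its site placed 19 bp from the promoter was used to select Caulobacter ParB variants randomised at four specificity codons. Growth lasted 48 hours at 37°C on histidine-free M9 containing 0.1 mM IPTG and 5 mM 3-AT. Fitness was taken as the log change in variant-to-wild-type read ratio from Illumina sequencing of pre- and post-selection plasmids, rescaled between the non-cognate and cognate sites.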

one-hybrid fitness for binding NBS DNA, 0.229:
RKLA

one-hybrid fitness for binding NBS DNA, 0.642:
RRCS

one-hybrid fitness for binding NBS DNA, ≤ 0.2:
SGKA
LPMC
MLDS
QDHT
LMWS
LCMI
KSTC
QLYH
KCYS
NTMR
PVYK
VLYL
HRRE
MQKM
RHIE
RGFY
LGDP
IEMG
MLPI
ARLQ
RTFN
HCER
THGW
ITLA
SMRI
YTPN
NEVL
FADG
KTWR
STVK
PPTQ
CPAW
QYSY
APTE
WAHT
KRRI
YITM
ATLV
MKGT
DRTC
RIDV
TSIT
TNLV
MNFG
VARY
NTGV
KRQY
SADP
MAAN
EEKC
WTKH
PALY
RITG
KHVT
HSLY
VPTS
PENV
GDAA
ARLK
HSYT
QLAP
GEAD
RIDA
RDEC
KVVD
KCNG
YNAG
QYAN
IYDG
APSP
DHTD
ACNG
DDQC
CCAC
ADQT
YRHS
GCND
RKQI
RNEF
RTFM
SNWV
EYAT
QWLC
QAIE
HIGN
VVNY
LCTF
TTGP
QEIR
PTKG
LLKV
AITG
EHAM
VHLT
HMWA
GRWC
VAMK
EARA
CMTR
LMNT
TLWI
DYRV
HHYG
FNPY
AMVE
VSFY
CRWT
LAVA
VLPR
HESD
FCTA
TDRV
AWYC
RVLK
CIGG
VNIS
TYTC
RDAM
IFKS
WSAE
DCGV
DVRN
EAWA
VPTQ
CETG
HEGS
QAHH
GNST
CFYC
NMKT
DNPS
GEGR
HITV
PTVH
RGGG
KRDH
LSNE
PNDR
HHFC
RAFC
MGNR
RCYD
ANLQ
TEAC
SMGG
LCPV
LVMQ
SQDS
LHGV
PDFW
QGLA
ESNT
NQQF
YPRG
YAIT
ETQK
TELI
RHVK
PNPG
CERG
RATP
IERV
QYCQ
TKNN
FLDC
CPRL
VGFI
YTFV
PYYG
AWLC
SRVD
GPKW
RYMM
QGEW
LKAS
MKNS
LNDR
WTVV
FTTP
EQMS
WPMR
STGR
DPQL

one-hybrid fitness for binding NBS DNA, 0.437:
RSSR

one-hybrid fitness for binding NBS DNA, 0.446:
QHST

one-hybrid fitness for binding NBS DNA, 0.288:
CGRR

one-hybrid fitness for binding NBS DNA, 0.373:
QQRW

one-hybrid fitness for binding NBS DNA, 0.239:
ARKT

one-hybrid fitness for binding NBS DNA, 0.566:
QRSA

one-hybrid fitness for binding NBS DNA, 0.344:
RKYA

one-hybrid fitness for binding NBS DNA, 0.372:
QHTS

one-hybrid fitness for binding NBS DNA, 0.27:
QIYS

one-hybrid fitness for binding NBS DNA, 0.322:
RRQN
